Test results published in the supplement of paper PMC8728848.
Some of the results follow.

How the values were obtained:
Assay in all cases: glycan array binding signal (z-score within array); higher = stronger binding
Details in all cases: glycan notation: IUPAC condensed, linker removed
[1] = molecular target: Gal(b1-4)GlcNAc(b1-2)Man(a1-6)[GlcNAc(b1-2)Man(a1-3)]Man(b1-4)GlcNAc(b1-4)GlcNAc
Outline: (§1)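 Glycan array data came from 3228 arrays in the Consortium for Functional Glycomics database, and only arrays with an available protein sequence were kept. Glycan names were put into IUPAC-condensed notation, and columns mapping to the same glycan were averaged. The binding signal is a within-array Z-score, averaged across arrays of one protein sequence run at different concentrations or buffers and across linkers. A negative Z-score can be read as non-binding.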

[2] = molecular target: Gal(b1-4)GlcNAc(b1-2)Man(a1-6)[Man(a1-3)]Man(b1-4)GlcNAc(b1-4)GlcNAc
Outline: as §1

[3] = molecular target: Gal(b1-4)GlcNAc(b1-2)[Gal(b1-4)GlcNAc(b1-4)]Man(a1-3)[Gal(b1-4)GlcNAc(b1-2)Man(a1-6)]Man(b1-4)GlcNAc(b1-4)GlcNAc
Outline: as §1

[4] = molecular target: Gal(b1-4)GlcNAc(b1-2)[Gal(b1-4)GlcNAc(b1-4)]Man(a1-3)[Gal(b1-4)GlcNAc(b1-2)[Gal(b1-4)GlcNAc(b1-6)]Man(a1-6)]Man(b1-4)GlcNAc(b1-4)GlcNAc
Outline: as §1

[5] = molecular target: Gal(b1-4)GlcNAc(b1-2)[Gal(b1-4)GlcNAc(b1-4)]Man(a1-3)[GlcNAc(b1-4)][Gal(b1-4)GlcNAc(b1-2)Man(a1-6)]Man(b1-4)GlcNAc(b1-4)GlcNAc
Outline: as §1

[6] = molecular target: Gal(b1-4)GlcNAc(b1-2)[Gal(b1-4)GlcNAc(b1-4)]Man(a1-3)[GlcNAc(b1-4)][Gal(b1-4)GlcNAc(b1-2)[Gal(b1-4)GlcNAc(b1-6)]Man(a1-6)]Man(b1-4)GlcNAc(b1-4)GlcNAc
Outline: as §1

[7] = molecular target: Gal(b1-4)GlcNAc(b1-2)[Gal(b1-4)GlcNAc(b1-6)]Man(a1-6)[Gal(b1-4)GlcNAc(b1-2)Man(a1-3)]Man(b1-4)GlcNAc(b1-4)GlcNAc
Outline: as §1

[8] = molecular target: Gal(b1-4)GlcNAc(b1-2)[Gal(b1-4)GlcNAc(b1-6)]Man(a1-6)[Gal(b1-4)GlcNAc(b1-2)Man(a1-3)]Man(b1-4)GlcNAc(b1-4)[Fuc(a1-6)]GlcNAc
Outline: as §1

[9] = molecular target: Gal(b1-4)GlcNAc(b1-2)[Gal(b1-4)GlcNAc(b1-6)]Man(a1-6)[GlcNAc(b1-4)][Gal(b1-4)GlcNAc(b1-2)Man(a1-3)]Man(b1-4)GlcNAc(b1-4)GlcNAc
Outline: as §1

[10] = molecular target: Gal(b1-4)GlcNAc(b1-2)[Gal(b1-4)GlcNAc(b1-6)]Man(a1-6)[GlcNAc(b1-4)][Gal(b1-4)GlcNAc(b1-2)[Gal(b1-4)GlcNAc(b1-4)]Man(a1-3)]Man(b1-4)GlcNAc(b1-4)[Fuc(a1-6)]GlcNAc
Outline: as §1

[11] = molecular target: Gal(b1-4)GlcNAc(b1-3)Gal(b1-3)GalNAc
Outline: as §1

[12] = molecular target: Gal(b1-4)GlcNAc(b1-3)Gal(b1-3)GlcNAc
Outline: as §1

[13] = molecular target: Gal(b1-4)GlcNAc(b1-3)Gal(b1-4)Glc
Outline: as §1

[14] = molecular target: Gal(b1-4)GlcNAc(b1-3)Gal(b1-4)GlcNAc
Outline: as §1

[15] = molecular target: Gal(b1-4)GlcNAc(b1-3)Gal(b1-4)GlcNAc(b1-2)Man(a1-3)[Gal(b1-4)GlcNAc(b1-3)Gal(b1-4)GlcNAc(b1-2)Man(a1-6)]Man(b1-4)GlcNAc(b1-4)GlcNAc
Outline: as §1

[16] = molecular target: Gal(b1-4)GlcNAc(b1-3)Gal(b1-4)GlcNAc(b1-2)Man(a1-3)[Gal(b1-4)GlcNAc(b1-3)Gal(b1-4)GlcNAc(b1-2)Man(a1-6)]Man(b1-4)GlcNAc(b1-4)[Fuc(a1-6)]GlcNAc
Outline: as §1

[17] = molecular target: Gal(b1-4)GlcNAc(b1-3)Gal(b1-4)GlcNAc(b1-2)[Gal(b1-4)GlcNAc(b1-3)Gal(b1-4)GlcNAc(b1-6)]Man(a1-6)[Gal(b1-4)GlcNAc(b1-3)Gal(b1-4)GlcNAc(b1-2)Man(a1-3)]Man(b1-4)GlcNAc(b1-4)GlcNAc
Outline: as §1

[18] = molecular target: Gal(b1-4)GlcNAc(b1-3)Gal(b1-4)GlcNAc(b1-2)[Gal(b1-4)GlcNAc(b1-3)Gal(b1-4)GlcNAc(b1-6)]Man(a1-6)[Gal(b1-4)GlcNAc(b1-3)Gal(b1-4)GlcNAc(b1-2)Man(a1-3)]Man(b1-4)GlcNAc(b1-4)[Fuc(a1-6)]GlcNAc
Outline: as §1

[19] = molecular target: Gal(b1-4)GlcNAc(b1-3)Gal(b1-4)GlcNAc(b1-3)Gal(b1-4)GlcNAc
Outline: as §1

[20] = molecular target: Gal(b1-4)GlcNAc(b1-3)Gal(b1-4)GlcNAc(b1-3)Gal(b1-4)GlcNAc(b1-2)Man(a1-3)[Gal(b1-4)GlcNAc(b1-3)Gal(b1-4)GlcNAc(b1-3)Gal(b1-4)GlcNAc(b1-2)Man(a1-6)]Man(b1-4)GlcNAc(b1-4)GlcNAc
Outline: as §1

[21] = molecular target: Gal(b1-4)GlcNAc(b1-3)Gal(b1-4)GlcNAc(b1-3)Gal(b1-4)GlcNAc(b1-2)Man(a1-3)[Gal(b1-4)GlcNAc(b1-3)Gal(b1-4)GlcNAc(b1-3)Gal(b1-4)GlcNAc(b1-2)Man(a1-6)]Man(b1-4)GlcNAc(b1-4)[Fuc(a1-6)]GlcNAc
Outline: as §1

[22] = molecular target: Gal(b1-4)GlcNAc(b1-3)Gal(b1-4)GlcNAc(b1-3)Gal(b1-4)GlcNAc(b1-2)[Gal(b1-4)GlcNAc(b1-3)Gal(b1-4)GlcNAc(b1-3)Gal(b1-4)GlcNAc(b1-6)]Man(a1-6)[Gal(b1-4)GlcNAc(b1-3)Gal(b1-4)GlcNAc(b1-3)Gal(b1-4)GlcNAc(b1-2)Man(a1-3)]Man(b1-4)GlcNAc(b1-4)[Fuc(a1-6)]GlcNAc
Outline: as §1

B1: LICBM33A (Lactococcus lactis), Q9CE94 (protein)
chain: MKKLLTGLLVAAGLLSVSLLIKTDTVSAHGYVQSPPARGYQGQLDSQSLGWTAAFNIYGNVISNPQSLEAPKGFPECGPADGRIASANGGLGQIGDFVLDNQTSSRWKKTSISTGSNIFTWKYTAPHKTTKWHYYMTKTGWDQNAPLKHSELELIGTINHDGSPATNNLSHTINIPTDRSGYHIVLAVWDVADTSNAFYNVIDINVNNKNASSQVFGPFL
glycan array binding signal (z-score) [1]: -0.512
glycan array binding signal (z-score) [2]: -1.01
glycan array binding signal (z-score) [3]: -0.458
glycan array binding signal (z-score) [4]: -0.445
glycan array binding signal (z-score) [5]: -0.283
glycan array binding signal (z-score) [6]: -0.148
glycan array binding signal (z-score) [7]: -0.525
glycan array binding signal (z-score) [8]: -0.269
glycan array binding signal (z-score) [9]: -0.433
glycan array binding signal (z-score) [10]: -0.622
glycan array binding signal (z-score) [11]: -0.224
glycan array binding signal (z-score) [12]: -0.158
glycan array binding signal (z-score) [13]: 0.254
glycan array binding signal (z-score) [14]: -0.705
glycan array binding signal (z-score) [15]: -0.103
glycan array binding signal (z-score) [16]: 0.511
glycan array binding signal (z-score) [17]: 0.114
glycan array binding signal (z-score) [18]: -0.441
glycan array binding signal (z-score) [19]: -0.608
glycan array binding signal (z-score) [20]: 0.138
glycan array binding signal (z-score) [21]: 0.764
glycan array binding signal (z-score) [22]: -1.02
